Measured values taken from the supplement of paper PMC3334620.
In all, about 33,000 sequences were measured (“E-score (-0.5 to 0.5)”: median about -0.012, highest 2% from about 0.27 on). The list shows a part of the results.

Each sequence was assayed against T1, Vhr1 (UniProt P40522) (assay: PBM E-score (8-mer binding enrichment) (E-score (-0.5 to 0.5)); higher = stronger / more preferred TF binding; most listed sequences are background and not binding sites). Details: protein concentration: 200 nM; construct: GST-full length.
T1 sequence: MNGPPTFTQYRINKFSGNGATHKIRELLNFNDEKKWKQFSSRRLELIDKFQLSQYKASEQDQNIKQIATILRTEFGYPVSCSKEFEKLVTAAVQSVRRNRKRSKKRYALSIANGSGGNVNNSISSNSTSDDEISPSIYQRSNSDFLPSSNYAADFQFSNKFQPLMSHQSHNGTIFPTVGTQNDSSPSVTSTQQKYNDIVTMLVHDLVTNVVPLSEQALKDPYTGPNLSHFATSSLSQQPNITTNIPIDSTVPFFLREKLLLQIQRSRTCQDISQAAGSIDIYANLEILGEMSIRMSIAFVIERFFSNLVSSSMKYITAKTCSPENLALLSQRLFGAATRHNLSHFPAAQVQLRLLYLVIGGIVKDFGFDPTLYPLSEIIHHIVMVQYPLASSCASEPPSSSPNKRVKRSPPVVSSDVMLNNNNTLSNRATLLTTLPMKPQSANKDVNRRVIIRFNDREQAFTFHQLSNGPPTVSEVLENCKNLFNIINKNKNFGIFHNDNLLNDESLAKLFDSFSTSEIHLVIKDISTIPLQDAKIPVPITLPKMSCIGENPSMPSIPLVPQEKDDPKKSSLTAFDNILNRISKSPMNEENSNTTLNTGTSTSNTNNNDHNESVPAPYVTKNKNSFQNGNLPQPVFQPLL
Procedure, shortened: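 Yeast transcription factors, full-length or as DNA-binding domains, were expressed with a GST tag using PURExpress in vitro transcription/translation. At about 100-200 nM they were applied to universal all-10-mer Agilent arrays, double-stranded by primer extension on fresh or once-stripped slides. Fluorescent anti-GST detected bound protein, and masliner normalised the scans. E-scores for ungapped eight-base words, pooled with reverse complements, came from the Universal PBM Analysis Suite.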

Sequence	PBM E-score
ATCAGCCA	0.0307
TACGGGGA	-0.0282
AGGCCATC	-0.0902
AAATGGAC	-0.0108
AGCAGTTC	-0.0478
TCAGGTAA	0.0977
CGTTATAA	-0.00255
GGGGGTAA	-0.0654
AAGTTAGT	-0.0445
ACAGGGTA	0.122
GGGGGGGA	-0.124
AAGTAACG	-0.0369
GATGAGGA	-0.143
GGATTGAA	0.0648
AGGCGTTC	-0.296
ATTCGAGC	-0.0346
GTATGAAA	0.131
TATAGACA	0.0913
CCCCTGCC	0.00437
AACAGGGT	-0.0439
GAATACGA	0.0524
TCACATGA	0.129
GGGGACAA	-0.0606
CACGAGTA	0.0881
AACTACTG	0.142

Sequence	PBM E-score
ATGGATAG	0.0432
AGTTGCGC	-0.0359
ATAGACAA	0.0968
ACCCCCCC	-0.176
ACCCCGGC	-0.00836
CTCAAGTA	-0.141
AGGCCAGC	-0.0611
GATAACGC	-0.0925
CAGATACA	0.222
CGATAACG	-0.153
ACCAAAAT	0.089
CATGCATC	0.28
CGCTGCCA	-0.0656
GTCTTTGA	-0.199
CCACGATC	-0.0106
ACGTTTAT	0.0767
AGCAGACG	-0.00622
TAGGTACA	-0.218
CAACATCA	0.148
CCTGCGGA	-0.0419
AGTATAAG	0.109
CGACAGTC	-0.102
CGAGAGTA	0.0247
AGCAGCTG	0.0423
AAACCGTT	-0.0781

Sequence	PBM E-score
GTAGGCGA	0.097
GTAGCCAA	-0.0795
CCAGAGAG	-0.0114
CGCTGGCC	-0.0284
AGGATGGC	0.124
ACACTCCG	-0.0633
CAGAGTGA	0.0508
AACTCGAT	0.081
AAGACCAC	-0.19
CTCATTGA	-0.127
CAGTGTGC	-0.0758
ATAAGATA	0.0723
ACAACTCA	0.192
CCAGACGG	-0.0493
CGATGCCC	-0.165
ATTGGAGA	-0.115
AATTGGAA	-0.0986
CGGTGCGA	0.151
AATCACCG	0.266
AATAGGAA	0.00091
TGCCGAAA	-0.207
CCGCTATA	-0.0648
AATTCGAT	-0.0685
GTACTCAA	0.198
ACGTGGGA	0.0803

Sequence	PBM E-score
AGGCTATC	0.0879
AGAGGTTA	-0.0475
CTGGGATC	-0.00223
GCCCGGAA	0.0467
ACGTCCTG	-0.152
CAGAATAG	0.0389
CATTATAC	0.208
CTCATTCA	0.0763
ATGAGCCC	0.077
GCGTTGGA	-0.0693
CCAGCCTC	-0.104
CTTAAGAA	-0.116
GAGCCTGC	0.0786
AAACGGAC	-0.129
TAAAGCCA	-0.0838
TCATGTCA	0.0112
CCAAGTCC	-0.089
AAGGCGCC	0.0449
CCAGTGAG	0.127
CCTGTCCA	-0.219
AATCGTCC	0.0027
CTAACATC	-0.00558
ACAAGGCT	-0.147
CCACCGCG	0.131
TACGTCGA	0.0188

Sequence	PBM E-score
TACTCCGA	0.174
GGGGTTTA	-0.0399
ACCCTACT	-0.0281
AAGGGGCA	-0.253
ATTATGGA	0.0765
AAATGGGT	-0.035
CTGATCTC	-0.0483
CAAATCTC	-0.0704
GCACAACC	0.145
CAGTTGCC	-0.0707
CAAGCTGA	0.14
CTTCCTTA	-0.126
CCCTGTGC	0.0798
GATGTTGA	0.0996
CCGGGGGA	0.0547
AGACAGGA	0.0608
GAGGCATC	-0.253
ATCGCTGC	-0.0116
ATGCAATG	0.0959
GAAACGCC	-0.163
AGTTTCGG	-0.00726
TGCAGCAA	0.114
CCCTCGGA	0.0808
CAGGCCGA	0.0296
ACAACGAT	0.0372

Sequence	PBM E-score
CTTCTCAC	-0.148
CGACCCAG	0.0508
AGCCGGCG	0.0432
ACACGACA	0.0664
TCCGTAAA	-0.156
GTAGAGCA	-0.167
ACTCTGGG	0.0639
AGCGCTCG	-0.0722
CCTCGCAC	0.0782
TCTGACCA	0.0347
GCGGCGAC	0.116
ACAACCAC	0.246
CCACCGGA	0.215
ATCATTGC	0.159
ACATGGCT	0.0966
ATGGATTA	-0.0563
CCTCATAA	-0.0654
AGTTGGTG	0.0949
GAGAGATC	-0.0513
AATTGGGT	0.149
TCGATGCA	0.0113
AAATCGAC	-0.0335
AAACGCTC	-0.237
CGTAGCAC	-0.00284
ATCGCCCA	0.0033

Sequence	PBM E-score
CTGACGTC	-0.0519
AGACAAGC	-0.182
CTTCGGAC	-0.073
TGATACCA	0.0612
CGTAGGCA	-0.227
AATGGCTC	0.137
CCACAATA	0.167
CTAATTGA	-0.0104
GCAATCGC	-0.188
ATTGTCTA	0.053
ATCTGATA	0.0202
GCATACCC	0.183
CTCTGCCA	-0.0556
CTCGGACA	-0.152
CCTAACTC	-0.0781
CAAACGTC	-0.137
GCTCGTTA	-0.073
ATAACAAC	0.00638
ATATTAAC	0.267
CGCGGTAG	0.0442
GCTACAGA	-0.0376
CCTGACCA	0.0879
